The shares of active, inactive and inconclusive entries below differ from those in the screen. Where the call is inconclusive, the potency comes from a doubtful curve fit. Active and inactive are the calls of the source. The call rests on the fitted dose curve; in most records, active means well fitted curve in the direction sought with a large enough effect; inconclusive means small, poorly fitted or top-dose-only effect, or another doubt; inactive means no such curve, though single readings can be large; an effect the other way counts as inactive or inconclusive.
Assay: BET inhibitor-based combinations targeting novel dependencies in MECOM-rearranged (r) AML: HNT-34 cell line (AID 2202234); further: nearly all actives have a fitted effect of over 35% in size;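 on viability (% of control): plate controls were vehicle wells for no effect and cell-free wells for full effect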
Conditions: HNT-34 AML viability, CellTiter-Glo luminescence, 48 h; series mostly up to 46 µM; viability (% of control): at the top concentration
Procedure, shortened: (§1)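 Using pin-tool transfer, drugs were added in 11 doses to cells (500/well), incubated 48 hr, and assessed with CellTiter-Glo. Z-AUC is a mean-centring transformation applied separately to each screened line.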
In the case of `CCc1c2c(nc3ccc(O)cc13)-c1cc3c(c(=O)n1C2)COC(=O)[C@]3(O)CC`, the Potency is reported as inconclusive: 0.0047 µM [inhibitor, full curve]. For `Cc1cc(C)c(CNC(=O)c2cc(-c3ccc(CN4CCOCC4)cc3)cc3c2cnn3C2CCCC2)c(=O)[nH]1`, the Potency was inconclusive: 26.3 µM [inhibitor, single point]. With `CC(C)COCC(CN(Cc1ccccc1)c1ccccc1)N1CCCC1` (centres undefined) the Potency was active: 16.6 µM. For `Cc1oncc1C(=O)Nc1ccc(C(F)(F)F)cc1`, the Potency was active: 16.6 µM. In the case of `O=c1cc(N2CCOCC2)oc2c(-c3ccccc3)cccc12`, the Potency is reported as inconclusive: 16.6 µM [inhibitor, partial curve]. For `Cc1c(OCC(F)(F)F)ccnc1CS(=O)c1nc2ccccc2[nH]1` (centres undefined), the “viability (% of control)” value was inactive: 101%. With `O=C(CC12CC3CC(CC(C3)C1)C2)Nc1cccc2nc(NCCNCCO)ccc12` the Potency was inconclusive: 33.2 µM [inhibitor, single point]. For `Cc1nc(Nc2ncc(C(=O)Nc3c(C)cccc3Cl)s2)cc(N2CCN(CCO)CC2)n1`, the Potency was inconclusive: 0.0019 µM [inhibitor, full curve]. In the case of `CCOc1cc2c(c(F)c1OCC)C(=N)N(CC(=O)c1cc(N3CCOCC3)c(OC)c(C(C)(C)C)c1)C2`, the Potency is reported as active: 8.33 µM. With `CN(C)C1CCN(C(=O)c2ccc(NC(=O)Nc3ccc(-c4nc(N5CCOCC5)nc(N5CCOCC5)n4)cc3)cc2)CC1` the Potency was active: 0.118 µM. With `CN1CCc2c(c3ccccc3n2Cc2ccc(C(=O)NO)cc2)C1` the Potency was active: 9.34 µM. For `Oc1ccc(/C=C/c2cc(O)cc(O)c2)cc1`, the Potency was inconclusive: 37.2 µM [inhibitor, single point]. For `COc1ccc2c(c1)CC[C@@H](CN(C)CC(=O)O)[C@H]2c1ccccc1`, the Potency was inconclusive: 67.9 µM [inhibitor, single point].

Assay: BET inhibitor-based combinations targeting novel dependencies in MECOM-rearranged (r) AML: UCSD-AML1 cell line (AID 2202235); further: nearly all actives have a fitted effect of over 40% in size;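 on viability (% of control): plate controls were DMSO vehicle wells for no effect and blank wells for full effect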
Conditions: UCSD-AML1 AML cells viability, CellTiter-Glo, 48 h; viability (% of control): at 46 µM (top of the series)
Procedure, shortened: as §1
In the case of `c1cc(-c2cnn3cc(-c4ccc(N5CCNCC5)cc4)cnc23)c2cccnc2c1`, the Potency is reported as active: 8.33 µM. In the case of `Cc1cc(C)c(CNC(=O)c2cc(-c3ccc(CN4CCOCC4)cc3)cc3c2cnn3C2CCCC2)c(=O)[nH]1`, the Potency is reported as inconclusive: 18.6 µM [inhibitor, partial curve]. With `O=c1cc(N2CCOCC2)oc2c(-c3ccccc3)cccc12` the Potency was inconclusive: 16.6 µM [inhibitor, partial curve]. For `O=C(CC12CC3CC(CC(C3)C1)C2)Nc1cccc2nc(NCCNCCO)ccc12`, the Potency was inconclusive: 37.2 µM [inhibitor, single point]. For `CCOc1cc2c(c(F)c1OCC)C(=N)N(CC(=O)c1cc(N3CCOCC3)c(OC)c(C(C)(C)C)c1)C2`, the Potency was inconclusive: 11.8 µM [inhibitor, single point]. With `CC(C)Cc1ccc(C(C)C(=O)O)cc1` (centres undefined) the “viability (% of control)” value was inactive: 105%. With `CN1CCc2c(c3ccccc3n2Cc2ccc(C(=O)NO)cc2)C1` the Potency was inconclusive: 37.2 µM [inhibitor, single point]. In the case of `Oc1ccc(/C=C/c2cc(O)cc(O)c2)cc1`, the Potency is reported as inconclusive: 11.8 µM [inhibitor, partial curve, poor fit]. For `C=C1C[C@@]2(O)O[C@@]3(C[C@H]2C(C)C)[C@@H](C)CC[C@@H]13`, the “viability (% of control)” value was inactive: 114%. For `Cc1cc(-c2nc3cc(F)ccc3s2)ccc1NC(=O)[C@@H](N)CCCCN`, the Potency was active: 14.8 µM.

Assay: BET inhibitor-based combinations targeting novel dependencies in MECOM-rearranged (r) AML: AML-191 cell line (AID 2202236; further: nearly all actives have a fitted effect of over 35% in size;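 on viability (% of control): plate controls were vehicle wells for no effect and wells without cells for full effect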)
Conditions: AML-191 viability, CellTiter-Glo luminescence, 48 h; series mostly up to 46 µM; viability (% of control): at the top concentration
Procedure, shortened: (§2)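 Viability of cells (500 per well) is scored by luminescent CellTiter-Glo at 48 hr post-dosing. Eleven-point titrations are normalized to DMSO and empty controls and reduced to AUC values.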
With `CCCn1c(=O)c2[nH]c(-c3cnn(Cc4cccc(C(F)(F)F)c4)c3)nc2n(CC)c1=O` the “viability (% of control)” value was inactive: 101%. With `CS(=O)(=O)c1ccc(C2=C(c3ccccc3)C(=O)OC2)cc1` the “viability (% of control)” value was inactive: 95.8%. For `Cc1cc(C)c(CNC(=O)c2cc(-c3ccc(CN4CCOCC4)cc3)cc3c2cnn3C2CCCC2)c(=O)[nH]1`, the Potency was inconclusive: 33.2 µM [inhibitor, single point]. With `Cc1oncc1C(=O)Nc1ccc(C(F)(F)F)cc1` the Potency was inconclusive: 18.6 µM [inhibitor, partial curve]. For `O=c1cc(N2CCOCC2)oc2c(-c3ccccc3)cccc12`, the Potency was inconclusive: 13.2 µM [inhibitor, partial curve]. With `CC(C)c1noc(N2CCC(COc3ccc(-c4ccc(S(C)(=O)=O)cc4)nc3)CC2)n1` the Potency was inconclusive: 10.5 µM [inhibitor, full curve, poor fit]. In the case of `CCOc1cc2c(c(F)c1OCC)C(=N)N(CC(=O)c1cc(N3CCOCC3)c(OC)c(C(C)(C)C)c1)C2`, the Potency is reported as active: 16.6 µM. With `CN(C)C1CCN(C(=O)c2ccc(NC(=O)Nc3ccc(-c4nc(N5CCOCC5)nc(N5CCOCC5)n4)cc3)cc2)CC1` the Potency was inconclusive: 1.18 µM [inhibitor, full curve]. With `Oc1ccc(/C=C/c2cc(O)cc(O)c2)cc1` the Potency was inconclusive: 16.6 µM [inhibitor, partial curve]. For `COc1ccc2c(c1)CC[C@@H](CN(C)CC(=O)O)[C@H]2c1ccccc1`, the “viability (% of control)” value was inactive: 99.5% [at 92.2 µM].

Assay: BET inhibitor-based combinations targeting novel dependencies in MECOM-rearranged (r) AML: AML-194 cell line (AID 2202237; further: nearly all actives have a fitted effect of over 40% in size;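 on viability (% of control): plate controls were vehicle wells for no effect and wells without cells for full effect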)
Conditions: AML-194 (MECOM-r AML) viability, CellTiter-Glo, 48 h; series mostly up to 46 µM; viability (% of control): at the top concentration
Procedure, shortened: as §2
With `COc1ccc2c(Oc3ccc(NC(=O)c4c(C)n(CC(C)(C)O)n(-c5ccccc5)c4=O)cc3F)ccnc2c1` the Potency was inconclusive: 23.5 µM [inhibitor, partial curve]. In the case of `Cc1cc(C)c(CNC(=O)c2cc(-c3ccc(CN4CCOCC4)cc3)cc3c2cnn3C2CCCC2)c(=O)[nH]1`, the Potency is reported as inconclusive: 23.5 µM [inhibitor, single point]. In the case of `CC(C)COCC(CN(Cc1ccccc1)c1ccccc1)N1CCCC1` (centres undefined), the Potency is reported as active: 23.5 µM. For `Cc1oncc1C(=O)Nc1ccc(C(F)(F)F)cc1`, the Potency was inconclusive: 11.8 µM [inhibitor, partial curve, poor fit]. For `O=c1cc(N2CCOCC2)oc2c(-c3ccccc3)cccc12`, the Potency was inconclusive: 16.6 µM [inhibitor, partial curve]. In the case of `Cn1cc(-c2ccc(S(=O)(=O)n3ccc(/C=C/C(=O)Nc4ccccc4N)c3)cc2)cn1`, the Potency is reported as active: 1.05 µM. In the case of `O=C(CC12CC3CC(CC(C3)C1)C2)Nc1cccc2nc(NCCNCCO)ccc12`, the Potency is reported as inconclusive: 33.2 µM [inhibitor, single point]. For `CCOc1cc2c(c(F)c1OCC)C(=N)N(CC(=O)c1cc(N3CCOCC3)c(OC)c(C(C)(C)C)c1)C2`, the Potency was active: 10.5 µM. With `CN1CCc2c(c3ccccc3n2Cc2ccc(C(=O)NO)cc2)C1` the Potency was active: 23.5 µM. For `Oc1ccc(/C=C/c2cc(O)cc(O)c2)cc1`, the Potency was inconclusive: 37.2 µM [inhibitor, single point]. For `C=C1C[C@@]2(O)O[C@@]3(C[C@H]2C(C)C)[C@@H](C)CC[C@@H]13`, the “viability (% of control)” value was inactive: 106%.

From PubChem BioAssay (NCATS)
Potency means the concentration at half of the fitted maximal effect; tags describe the fitted curve by direction and shape.
